Data published in the supplement of paper PMC6531468.
The other results are listed elsewhere or left out. These are enrichments in a pooled selection; single values are uncertain. Each score is taken over the longer molecules that contain the sequence shown.

Test system: IMP3 KH1-4
Assay: 6-mer SELEX enrichment z-score vs GST control; IMP3 is the RNA-binding protein IGF2BP3; higher = more enriched by binding
Conditions: construct: KH1-4 (164-579); SELEX round: R4
Procedure: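 SELEX-seq with GST-tagged IMP3 KH1-4 (Pro164-Lys579) and an N40 RNA pool, round 4. 6-mer z-score of sequence-tag enrichment normalised to the corresponding GST SELEX round; RNA k-mers written as DNA (T for U).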

Sequence of IMP3 KH1-4 (chain, as listed by the source): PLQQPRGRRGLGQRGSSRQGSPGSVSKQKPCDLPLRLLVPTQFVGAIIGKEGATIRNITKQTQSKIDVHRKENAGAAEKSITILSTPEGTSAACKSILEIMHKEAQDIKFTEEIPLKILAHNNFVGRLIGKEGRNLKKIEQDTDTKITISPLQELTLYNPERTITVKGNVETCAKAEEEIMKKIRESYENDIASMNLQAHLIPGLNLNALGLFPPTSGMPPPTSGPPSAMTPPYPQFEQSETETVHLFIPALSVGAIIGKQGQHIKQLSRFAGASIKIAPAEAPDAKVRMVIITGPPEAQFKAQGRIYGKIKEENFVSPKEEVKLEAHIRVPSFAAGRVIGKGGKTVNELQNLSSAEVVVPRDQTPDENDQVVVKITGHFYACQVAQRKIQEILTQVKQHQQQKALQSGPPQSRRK

Sequence | 6-mer SELEX enrichment z-score
CACATG | 1.76
CGGGCG | -2.22
GAGTCG | 0.529
GGAATC | -0.427
TAAGAC | -0.118
TGCTTA | 0.241
TCCTAC | 0.028
GTCAAG | -0.422
CGCACA | 1.7
CCTAGG | -0.485
GGCGTT | -0.65
ACTCTG | -0.47
TAACGC | 0.099
CAAGAT | 0.288
GTGCAA | 0.176
CCATAT | 1.41
TTTAAT | 1.36
AGAGGA | 1.43
GTCTAA | -0.467
GAGGAG | 0.813

Sequence | 6-mer SELEX enrichment z-score
TAGCAA | 0.055
CCAGGT | -0.218
AACCTG | -1.53
GTCTTA | -0.207
TATACT | 0.849
ACACCC | -1.49
TATAGA | 1.1
TCGTTT | 0.028
GAGCAG | -0.781
ACAGGA | 1.44
CGTAAG | -1.04
GCGGGC | -0.249
CTCGAT | -1.08
AAGTTG | -0.226
GTACAC | -0.371
GAGTAT | -0.239
CCTACA | -0.191
TCCCGG | -0.642
GATGAG | 0.222

Test system: IMP3 RRM1-2
Assay: as above
Conditions: construct: RRM1-2 (1-163); SELEX round: R2
Procedure: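 SELEX-seq with GST-tagged IMP3 RRM1-2 (Met1-Asn163) and an N40 RNA pool, round 2. 6-mer enrichment z-score normalised to GST SELEX. RNA written as DNA (T = U).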

Sequence of IMP3 RRM1-2 (chain, as listed by the source): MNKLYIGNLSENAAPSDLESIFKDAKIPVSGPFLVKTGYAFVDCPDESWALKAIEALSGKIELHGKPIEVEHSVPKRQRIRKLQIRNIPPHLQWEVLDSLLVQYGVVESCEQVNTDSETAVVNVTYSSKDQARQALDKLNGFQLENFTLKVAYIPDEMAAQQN

Sequence | 6-mer SELEX enrichment z-score
CACATG | 1.91
CGGGCG | 0.151
GAGTCG | -0.112
GGAATC | -0.071
TAAGAC | -0.736
TGCTTA | 0.16
TCCTAC | 0.01
GTCAAG | -0.03
CGCACA | 1.58
CCTAGG | 0.043
GGCGTT | 0.557
ACTCTG | -0.211
TAACGC | -0.314
CAAGAT | -0.365
GTGCAA | -0.041
CCATAT | 0.449
TTTAAT | 0.187
AGAGGA | -0.636
GTCTAA | -0.214
GAGGAG | -0.581

Sequence | 6-mer SELEX enrichment z-score
TAGCAA | 0.232
CCAGGT | 0.058
AACCTG | -1.25
GTCTTA | 0.309
TATACT | 0.14
ACACCC | -0.539
TATAGA | -0.385
TCGTTT | 0.455
GAGCAG | -0.01
ACAGGA | 0.318
CGTAAG | -0.386
GCGGGC | 0.056
CTCGAT | 0.096
AAGTTG | -0.238
GTACAC | 0.194
GAGTAT | -0.078
CCTACA | 0.459
TCCCGG | -0.261
GATGAG | -0.583

Molecular target: IMP3 full-length (UniProt O00425)
Assay: as above
Conditions: construct: FL IMP3 (1-579); SELEX round: R4
Procedure: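 SELEX-seq with GST-tagged full-length IMP3 and an N40 RNA pool, round 4. Each 6-mer is scored as an enrichment z-score of sequence tags containing it, normalised to the matching GST SELEX round. RNA written as DNA (T = U).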

Sequence of UniProt O00425 (O00425 whole entry): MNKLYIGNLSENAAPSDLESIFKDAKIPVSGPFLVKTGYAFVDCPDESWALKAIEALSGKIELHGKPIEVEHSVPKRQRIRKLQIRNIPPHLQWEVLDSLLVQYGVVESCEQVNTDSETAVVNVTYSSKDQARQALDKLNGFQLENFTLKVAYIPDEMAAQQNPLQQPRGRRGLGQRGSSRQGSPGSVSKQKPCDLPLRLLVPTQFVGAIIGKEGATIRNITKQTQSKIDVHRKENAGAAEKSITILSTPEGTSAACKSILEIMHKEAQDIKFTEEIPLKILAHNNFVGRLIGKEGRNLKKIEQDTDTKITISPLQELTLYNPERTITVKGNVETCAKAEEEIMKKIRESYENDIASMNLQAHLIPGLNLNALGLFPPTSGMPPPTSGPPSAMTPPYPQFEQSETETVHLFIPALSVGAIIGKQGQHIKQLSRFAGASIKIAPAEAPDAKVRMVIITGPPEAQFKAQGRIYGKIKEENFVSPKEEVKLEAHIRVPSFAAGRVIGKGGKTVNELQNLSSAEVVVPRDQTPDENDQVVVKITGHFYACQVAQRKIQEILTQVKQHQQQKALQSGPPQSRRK

Sequence | 6-mer SELEX enrichment z-score
CACATG | 2.23
CGGGCG | -0.339
GAGTCG | 0.793
GGAATC | -0.144
TAAGAC | -0.806
TGCTTA | -0.106
TCCTAC | -0.372
GTCAAG | 0.146
CGCACA | 2.21
CCTAGG | -0.335
GGCGTT | 0.105
ACTCTG | -0.277
TAACGC | -0.483
CAAGAT | -0.212
GTGCAA | 0.102
CCATAT | 0.591
TTTAAT | 0.229
AGAGGA | 0.156
GTCTAA | -0.36
GAGGAG | 0.313

Sequence | 6-mer SELEX enrichment z-score
TAGCAA | 0.136
CCAGGT | 0.03
AACCTG | -1.92
GTCTTA | -0.027
TATACT | 0
ACACCC | -1.68
TATAGA | 0.067
TCGTTT | 0.094
GAGCAG | 0.186
ACAGGA | 1.11
CGTAAG | -0.823
GCGGGC | 1.01
CTCGAT | -0.453
AAGTTG | -0.433
GTACAC | 0.377
GAGTAT | -0.231
CCTACA | -0.198
TCCCGG | -0.137
GATGAG | -0.35

Test system: IMP3 KH1-2
Assay: as above
Conditions: construct: KH1-2 (164-376); SELEX round: R4
Procedure: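 SELEX-seq with GST-tagged IMP3 KH1-2 (Pro164-Phe376) and an N40 RNA pool, round 4 (stringent 300/600 mM KCl washes). 6-mer z-score of sequence-tag enrichment normalised to the corresponding GST SELEX round; RNA k-mers written as DNA (T for U).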

Sequence of IMP3 KH1-2 (chain, as listed by the source): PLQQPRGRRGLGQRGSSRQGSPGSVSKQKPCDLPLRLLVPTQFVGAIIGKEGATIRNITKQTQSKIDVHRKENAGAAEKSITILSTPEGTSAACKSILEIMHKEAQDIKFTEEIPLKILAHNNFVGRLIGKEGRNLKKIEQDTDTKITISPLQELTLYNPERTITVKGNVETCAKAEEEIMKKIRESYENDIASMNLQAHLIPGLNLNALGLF

Sequence | 6-mer SELEX enrichment z-score
CACATG | 1.41
CGGGCG | -1.82
GAGTCG | 0.527
GGAATC | -0.442
TAAGAC | -0.114
TGCTTA | 0.284
TCCTAC | -0.009
GTCAAG | -0.406
CGCACA | 1.77
CCTAGG | -0.43
GGCGTT | -0.482
ACTCTG | -0.347
TAACGC | 0.126
CAAGAT | 0.166
GTGCAA | -0.041
CCATAT | 1.28
TTTAAT | 1.19
AGAGGA | 1.18
GTCTAA | -0.484
GAGGAG | 0.923

Sequence | 6-mer SELEX enrichment z-score
TAGCAA | 0.035
CCAGGT | -0.301
AACCTG | -1.51
GTCTTA | -0.186
TATACT | 0.889
ACACCC | -1.53
TATAGA | 0.913
TCGTTT | 0.034
GAGCAG | -0.726
ACAGGA | 1.24
CGTAAG | -0.991
GCGGGC | 0.035
CTCGAT | -0.931
AAGTTG | -0.362
GTACAC | -0.506
GAGTAT | -0.262
CCTACA | -0.068
TCCCGG | -0.561
GATGAG | 0.091

Test system: IMP3 KH3-4
Assay: as above
Conditions: construct: KH3-4 (377-579); SELEX round: R4
Procedure: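 SELEX-seq with GST-tagged IMP3 KH3-4 (Pro377-Lys579) and an N40 RNA pool, round 4. 6-mer z-score of sequence-tag enrichment normalised to the corresponding GST SELEX round; RNA k-mers written as DNA (T for U).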

Sequence of IMP3 KH3-4 (chain, as listed by the source): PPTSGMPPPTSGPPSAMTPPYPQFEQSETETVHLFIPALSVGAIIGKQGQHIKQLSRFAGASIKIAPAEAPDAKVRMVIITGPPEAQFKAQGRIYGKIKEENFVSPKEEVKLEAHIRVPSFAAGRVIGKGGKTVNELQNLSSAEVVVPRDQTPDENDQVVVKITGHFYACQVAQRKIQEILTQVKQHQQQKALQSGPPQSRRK

Sequence | 6-mer SELEX enrichment z-score
CACATG | 1.08
CGGGCG | -1.8
GAGTCG | 0.406
GGAATC | -0.445
TAAGAC | 0.208
TGCTTA | 0.327
TCCTAC | -0.315
GTCAAG | -0.314
CGCACA | 0.744
CCTAGG | -0.474
GGCGTT | -0.28
ACTCTG | -0.52
TAACGC | 0.033
CAAGAT | 0.487
GTGCAA | 0.13
CCATAT | 1.14
TTTAAT | 2.09
AGAGGA | 1.42
GTCTAA | -0.287
GAGGAG | 0.793

Sequence | 6-mer SELEX enrichment z-score
TAGCAA | 0.127
CCAGGT | -0.384
AACCTG | -1.77
GTCTTA | -0.016
TATACT | 1.1
ACACCC | -2.67
TATAGA | 1.73
TCGTTT | 0.212
GAGCAG | -0.676
ACAGGA | 1.09
CGTAAG | -0.831
GCGGGC | 0.051
CTCGAT | -0.868
AAGTTG | -0.18
GTACAC | -0.767
GAGTAT | 0.068
CCTACA | -0.678
TCCCGG | -0.761
GATGAG | 0.452
